Measured values reported in paper PMC4336329 (PLoS ONE, 2015).
In all, about 310,000 compounds went through this assay and about 2,200 (0.71%) showed an effect of 50% or more. Effects have a minus sign here. Some of the results follow.

Molecular target: human ether-à-go-go-related gene (hERG) potassium channel (human, UniProt Q12809)
Test: primary screen, population patch clamp on CHO cells stably expressing hERG

Sequence of human ether-à-go-go-related gene (hERG) potassium channel (Q12809 whole entry, looked up): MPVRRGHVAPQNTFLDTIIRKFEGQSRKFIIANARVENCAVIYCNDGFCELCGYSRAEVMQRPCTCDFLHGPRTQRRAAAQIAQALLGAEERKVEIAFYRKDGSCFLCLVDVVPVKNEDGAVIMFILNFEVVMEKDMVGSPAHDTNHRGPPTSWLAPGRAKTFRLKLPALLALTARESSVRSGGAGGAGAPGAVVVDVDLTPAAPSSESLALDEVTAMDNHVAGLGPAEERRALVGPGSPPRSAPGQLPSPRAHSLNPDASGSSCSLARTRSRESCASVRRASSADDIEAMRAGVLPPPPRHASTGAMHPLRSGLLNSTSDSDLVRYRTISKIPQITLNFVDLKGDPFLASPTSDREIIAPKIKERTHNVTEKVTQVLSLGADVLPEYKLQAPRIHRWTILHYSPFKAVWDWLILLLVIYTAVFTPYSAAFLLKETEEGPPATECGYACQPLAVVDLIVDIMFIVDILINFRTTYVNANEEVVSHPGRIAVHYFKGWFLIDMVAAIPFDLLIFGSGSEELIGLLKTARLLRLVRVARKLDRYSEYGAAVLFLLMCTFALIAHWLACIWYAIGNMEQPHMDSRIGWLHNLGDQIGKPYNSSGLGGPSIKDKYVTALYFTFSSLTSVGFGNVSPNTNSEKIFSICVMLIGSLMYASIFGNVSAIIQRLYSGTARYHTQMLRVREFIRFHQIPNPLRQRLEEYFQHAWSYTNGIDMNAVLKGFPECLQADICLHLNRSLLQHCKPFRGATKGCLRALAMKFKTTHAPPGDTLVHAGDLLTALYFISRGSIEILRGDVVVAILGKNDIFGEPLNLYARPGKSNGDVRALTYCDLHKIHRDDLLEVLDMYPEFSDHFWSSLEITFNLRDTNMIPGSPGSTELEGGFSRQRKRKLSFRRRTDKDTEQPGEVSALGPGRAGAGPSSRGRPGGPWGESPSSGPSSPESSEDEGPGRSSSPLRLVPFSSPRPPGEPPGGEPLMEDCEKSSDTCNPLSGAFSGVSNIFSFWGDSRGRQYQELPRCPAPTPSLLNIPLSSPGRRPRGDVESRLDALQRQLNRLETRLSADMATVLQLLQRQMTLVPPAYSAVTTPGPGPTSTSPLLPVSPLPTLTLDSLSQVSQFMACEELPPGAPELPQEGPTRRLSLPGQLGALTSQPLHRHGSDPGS

Row | Structure (SMILES) | hERG current change (%, negative = inhibition) at 1uM
1 | COC(=O)c1cc(OC(=O)c2ccc(=O)[nH]c2)cc(C(=O)OC)c1 | 6.38%
2 | COc1ccc(NC(=O)c2csc3c2CCCC3)cc1 | 6.07%
3 | CN(C[C@@H](CC1CCCCC1)N(C[C@H](Cc1ccccc1)N(CCc1ccccc1)N=O)N=O)N=O.[Na+] | 13.8%
4 | CCOc1ccccc1NC(=O)CSc1nc(=O)n(Cc2ccccn2)c2c1CCC2 | -15.2%
5 | Cc1ccccc1S(=O)Cc1ccc(C(=O)N2CCN(C(=O)c3ccco3)CC2)o1 (centres unmarked) | 21%
6 | O=C(N1CCN(c2ccccc2F)CC1)C12CC3CC(CC(C3)C1)C2 | 2.92%
7 | CC1=NN(c2ccccc2)C(=O)C1/C=C1\C(=O)NC(=O)N(c2ccc(C)c(C)c2)C1=O (centres unmarked) | 4.17%
8 | Cc1onc(-c2ccccc2Cl)c1C(=O)Nc1sc2c(c1C#N)CCC2 | 1.71%
9 | O=C(Nc1nc2ccc(S(=O)(=O)N3CCCC3)cc2s1)c1ccccn1 | -1.87%
10 | CCC(C)NC(=O)c1cc2c(=O)n(CC)c3ccccc3c2s1 (centres unmarked) | 9.93%
11 | Cc1onc(-c2ccccc2)c1C(=O)N1CCCCCC1 | 15.5%
12 | COc1ccc(C(=S)N2CCCC2)cc1C | 3.2%
13 | Cc1ccc(S(=O)(=O)NNC(=O)c2cc3cc4ccccc4nc3s2)cc1 | 5.43%
14 | O=C(Nc1nnc(-c2ccc3c(c2)CCCC3)o1)C1COc2ccccc2O1 (centres unmarked) | 9.87%
15 | COc1ccc2c(c1OC)C(=O)N(c1cccc(C(F)(F)F)c1)C2 | 4.84%
16 | O=C(O)CCc1nc2cccnc2n1Cc1ccccc1 | 1.07%
17 | CCc1noc(C)c1C(=O)N1CCCC(N2CCN(c3ccc(F)cc3)CC2)C1 (centres unmarked) | -2.61%
18 | O=C(COC(=O)c1ccccc1NC(=O)c1ccco1)NCc1ccc2c(c1)OCO2 | 2.27%
19 | O=C(CSc1nc(C(F)(F)F)cc(=O)[nH]1)N1CCC(Cc2ccccc2)CC1 | 5.3%
20 | CN(C)C(=O)N1CCCC(C(=O)NCc2ccccc2Cl)C1 (centres unmarked) | -3.61%
21 | CCCCOC(=O)C1Cc2ccccc2C(=O)O1 (centres unmarked) | -2.84%
22 | CN(C)C(CNC(=O)c1ccc(NS(=O)(=O)c2ccc3[nH]c(=O)[nH]c3c2)cc1)c1ccccc1 (centres unmarked) | 5%

Row | Structure (SMILES) | hERG current change (%, negative = inhibition) at 1uM
23 | COc1ccc(OCc2cc(C(=O)N3C[C@@H](C)O[C@@H](C)C3)no2)c(Cl)c1 | 10.1%
24 | CCOC(=O)N1CCC(NC(=O)CSCc2nc(-c3ccc(OCC)cc3)oc2C)CC1 | -3.41%
25 | O=C(NCc1ccco1)C(c1cccnc1)N(C(=O)Cn1nnc2ccccc21)c1ccc(F)cc1 (centres unmarked) | 13.5%
26 | Cc1oc2cc(O)ccc2c(=O)c1Oc1ccc2ccccc2c1 | -0.271%
27 | O=C(CN1CCN(c2ccccc2O)CC1)Nc1ccccc1C(=O)NCCc1ccccc1 | 26.8%
28 | Cc1ccc(NC(=O)CS(=O)CC(=O)N2CCN(c3ccccc3)CC2)cc1 (centres unmarked) | 11.6%
29 | Cc1ccc(NS(=O)(=O)N2CCOCC2)c(C)c1 | 10.3%
30 | CC(C)Oc1ccc(CNC(=O)Cn2c(=O)oc3ccccc32)cc1 | 1.68%
31 | Cc1ccc(N2C(=O)C(Cl)=C(NCCO)C2=O)c(C)c1 | 21.6%
32 | O=C(O)c1ccc(/C=N/N2CCN(Cc3ccc(Cl)cc3)CC2)cc1 | 19.9%
33 | Cc1ccc(C2N(c3ccccc3)C(=O)N3CCCN23)cc1 (centres unmarked) | 7.78%
34 | N#CCCN1CCN(S(=O)(=O)c2ccc(S(=O)(=O)NCc3ccccc3)cc2)CC1 | 12.2%
35 | Cc1ccc(-n2c(C)c(C)c3c(NCCO)ncnc32)cc1 | 15.3%
36 | COc1cc(/C=C2/C(=O)CNC2=O)ccc1O | 11.8%
37 | O=C(Nc1ccc(CN2CCCCC2)cc1)c1cc(Br)ccc1Cl | 0.563%
38 | COC(=O)CCCC1=CC2=CC(=O)C(C)(OC(=O)c3cnc4ccccc4n3)C(=O)C2=CO1 (centres unmarked) | 12.2%
39 | CCOc1cc(C(=O)NC(C)c2ccncc2)cc(OCC)c1OCC (centres unmarked) | -1.97%
40 | Cc1cc(Br)ccc1NC(=O)CN(C)C(=O)CNC(=O)Cc1ccccc1 | 2.7%
41 | Oc1c(CN2CCN(c3ccc(F)cc3)CC2)cc(Cl)c2cccnc12 | -1.49%
42 | O=C(O)c1cccc(-c2ccc(/C=N/NC(=O)C3COc4ccccc4O3)o2)c1 (centres unmarked) | 3.08%
43 | COc1ccc(CCNC(=O)CCCOc2ccc(Cl)cc2)cc1OC | 3.97%
44 | O=C(NCC1CCCO1)c1ccccn1 (centres unmarked) | -5.63%

Row | Structure (SMILES) | hERG current change (%, negative = inhibition) at 1uM
45 | CC(C)Cn1cnc2c(c(-c3ccccc3)c(-c3ccccc3)n2Cc2ccco2)c1=N | -26.2%
46 | CC(=O)Nc1ccc(S(=O)(=O)N[C@@H](C)C(=O)N2CCN(C/C=C/c3ccccc3)CC2)cc1 | 3.54%
47 | COc1cc(/C=C/C(=O)OCC(=O)NC2CC2)cc(S(=O)(=O)N2CCc3ccccc32)c1OC | 5.44%
48 | COc1cc2[nH]c(=O)n(Cc3ccc(C(=O)NC4CCCC4)cc3)c(=O)c2cc1OC | 10.1%
49 | O=S1(=O)N=C2CCCCCN2C(c2ccc(F)cc2)N1 (centres unmarked) | 6.31%
50 | O=c1oc2ccccc2n1Cc1cccc(Cl)c1 | 9.95%
51 | CC(=O)c1ccc(Nc2ccc(-c3ccccc3F)nn2)cc1 | 7.8%
52 | CCc1cc(C(=O)Nc2cc(Cl)ccc2N2CCN(C)CC2)sc1C | 10.4%
53 | COc1ccc(/C(C)=N/NC2=NCCN2)cc1Cl | 6.59%
54 | CC(NC(=O)c1cc2cc(Br)ccc2oc1=N)c1ccccc1 (centres unmarked) | 10.7%
55 | Cc1ccc(S(=O)(=O)N2CCCC(C(=O)NCCCN3CCCCC3C)C2)cc1 (centres unmarked) | -7.12%
56 | CCOc1ccc(C(=O)NCC(=O)OCc2c(C)noc2C)cc1OCC | 9.45%
57 | CCc1ccc2[nH]c(=O)c(CN(CCCN3CCOCC3)C(=O)Nc3cccc(Cl)c3)cc2c1 | 4.63%
58 | CCOC(=O)Cn1nc(NC(=O)c2ccc(C(=O)OC)cc2)cc1C | 15%
59 | CCSc1nnc(NC(=O)c2ccc3ccccc3n2)s1 | 5.73%
60 | CS/C(N)=N/S(=O)(=O)c1ccc(NC(C)=O)cc1 | 15.2%
61 | C=CCn1c(O)c(N=Nc2ccccc2C)c2ccccc21 | 10%
62 | Cc1ccc(N(C(C)C(=O)Nc2ccc3c(c2)OCO3)S(C)(=O)=O)cc1 (centres unmarked) | 8.42%
63 | Cc1cc(C2=NNC(=NCCc3ccccc3)SC2)c(C)n1-c1c(C)n(C)n(-c2ccccc2)c1=O | 18.8%
64 | O=C(C1=C(O)C(=O)N(CC2CCCO2)C1c1cccnc1)c1ccco1 (centres unmarked) | 7.42%
65 | COc1ccc(-c2cc3c(=O)n(CC(=O)Nc4ccc(C(C)=O)cc4)ncn3n2)cc1 | 24.4%
66 | CCCC(=O)OCCn1c(Br)nc2c1c(=O)[nH]c(=O)n2C | 13.8%

Row | Structure (SMILES) | hERG current change (%, negative = inhibition) at 1uM
67 | Cc1nc2c(C)cccc2c(SC(=N)N)c1CC=C(Cl)Cl.Cl | 12.4%
68 | CCc1ccc(NC(=O)c2cc(-c3ccco3)on2)cc1 | 0.42%
69 | CC1=NN(c2ccccc2C(=O)O)C(=O)C1N=Nc1ccccc1 (centres unmarked) | 0.561%
70 | COc1ccc(NC(=O)c2ccc(NC(=O)CCS(=O)(=O)c3cccs3)cc2)cc1 | 14%
71 | CCCCCCN1CC(=O)N2[C@@H](Cc3c([nH]c4ccccc34)C2(C)C)C1=O | 15.5%
72 | O=C(NNC(=S)NC(=O)c1sc2ccccc2c1Cl)c1ccc(Cl)cc1 | 12.2%
73 | O=C(NCc1ccncc1)c1ccc(Br)o1 | -0.613%
74 | O=C(CSCC(=O)Nc1cccc2ccccc12)Nc1cccc2ccccc12 | 23.7%
75 | CCOc1cc(/C=N/Nc2nnc(C)n2N)ccc1OC(C)=O.Cl | 11.7%
76 | CC1CN=C(NC(C)c2ccccc2)S1 (centres unmarked) | 6.3%
77 | O=[N+]([O-])c1ccc(N2CCCC2)cc1NC(c1ccccc1)c1ccccc1 | 14.9%
78 | CCc1[nH]nc2c1C1(CCN(C(=O)OCc3ccccc3)CC1)C(C#N)=C(N)O2 | 9.7%
79 | O=C(Nc1nnc(C23CC4CC(CC(C4)C2)C3)s1)c1ccc(N2C(=O)CCC2=O)cc1 | 13.1%
80 | CCCCN(C)CCN1C(=O)C2C(C(=O)Nc3ccc(Cl)cc3)C3C=CC2(O3)C1C(=O)NC1CCCCC1 (centres unmarked) | -60.5%
81 | COc1cccc(C(=O)COC(=O)C(C)N2C(=O)c3ccccc3C2=O)c1 (centres unmarked) | 16.2%
82 | CC1CCN(c2c(NCc3ccc(C(=O)NCC4COc5ccccc5O4)cc3)c(=O)c2=O)CC1 (centres unmarked) | 6.92%
83 | c1ccc2c(c1)nc(-c1ccncc1)n2CCNc1nc(CN2CCCCC2)cs1 | 12%
84 | CC(NC(=O)CCc1ccccc1)c1ccc2c(c1)OCO2 (centres unmarked) | 20.1%
85 | COC(=O)c1ccccc1C(=O)N1CCCC(C(=O)c2ccc(OC)c(OC)c2)C1 (centres unmarked) | 14.3%
86 | COc1ccc(-c2ccc3nnc(SCC(=O)N4CCCC4)n3n2)cc1 | -4.68%
